Measured values published in PubChem BioAssay AID1508624 (National Center for Advancing Translational Sciences (NCATS), 2021).
Hit rate of the full screen: of about 48,000 compounds, about 120 (0.25%) were called active. About 4% were inconclusive and are not listed. The call rests on the fitted dose curve; in most records, active means well fitted activation curve with a large enough effect; inconclusive means small, poorly fitted or top-dose-only effect, or another doubt; inactive means no such curve, though single readings can be large or run the other way. The list shows a part of the results.

Test: Primary qHTS for Identification of Small Molecule Activators of Huntingtin-Antisense Promoter Activity; further: nearly all actives have a fitted effect of over 55% in size
Settings: HEK293 HTT-AS promoter firefly luciferase reporter, 24 h; series mostly up to 57.5 µM; activity change, positive = activation: at the top concentration
How it was run: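 Quantitative HTS used concentration series of up to 57.5 uM final on HEK293 luciferase reporter cells, 24 h at 37 degrees C. Readout was Dual-Glo firefly luminescence.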

Activity change, positive = activation, inactive:
COc1ccc(-n2c(-c3ccco3)nc3c(cnn3-c3ccccc3C)c2=O)cc1 -13.5%
Cc1ccccc1CNC(=O)c1cc2cc(S(=O)(=O)N3CCCCC3)ccc2n1C -31.3%
CO[C@H]1C=CO[C@@]2(C)Oc3c(C)c(O)c4c(O)c(c5c(c4c3C2=O)NC2(CCN(CC(C)C)CC2)N=5)=NC(=O)C(C)=CC=C[C@H](C)[C@H](O)[C@@H](C)[C@@H](O)[C@@H](C)[C@H](OC(C)=O)[C@H]1C -5.09%
CCOC(=O)c1cc(NC(=O)c2ccc(Cl)cc2)c(=O)n2c1oc1ccccc12 -9.83%
COc1ccc(Nc2c3c(nc4ccc(NC(=O)/C=C/c5cccc(OC)c5OC)cc24)CCCC3)cc1OC -95%
NC(=O)c1ncn([C@@H]2O[C@H](CO)[C@@H](O)[C@H]2O)c1O -3.59%
O=C(Nc1ccc(Br)cc1)c1cccc(C(=O)Nc2ccc(Br)cc2)c1 -23.4%
O=S(=O)(c1ccc(Cl)cc1)c1nc(-c2ccccc2)oc1N1CCN(c2ccccc2)CC1 -6.45%
CCOc1ccc(C2CC(=O)c3c([nH]c(C(=O)OC4CCC(C)CC4)c3C)C2)cc1 (stereo unspecified) -1.46%
COc1ccccc1N1CCN(C(=O)CN2C(=O)COc3ccc(S(=O)(=O)N4CCCC4)cc32)CC1 -1.4%
CCc1nc(SCc2cc(=O)c3cc(C)ccc3[nH]2)n[nH]1 -15.2%
CCc1cccc(NC(=O)CSc2nc3ccsc3c(=O)n2CC)c1 -38.5%
Cc1ccc(CNC(=O)Cn2c(=O)n(Cc3ccccc3)c(=O)c3sc4ccccc4c32)cc1 -15.2%
CCCN1CCN(c2cc3c(cc2F)c(=O)c(S(=O)(=O)c2ccc(Cl)cc2)cn3C)CC1 -12.1%
Cc1cc(C)c2sc(NC(=O)c3ccc(S(=O)(=O)N4CCOCC4)cc3)nc2c1 -37.2%
COc1ccc(C(=O)NCC(c2ccc(N(C)C)cc2)N2CCc3ccccc32)cc1 (stereo unspecified) -17.7%
Cn1c(=O)n(C)c2cc(N3CCOCC3)c(NC(=O)c3c(F)cccc3F)cc21 -7.35%
CCc1cc2c(-c3ccccc3)cc(=O)oc2c2c1OCN(Cc1ccc(F)cc1)C2 -34.6%
COc1cc(OC)c(NC(=O)Nc2c(C)n(C)n(-c3ccccc3)c2=O)cc1Cl -1.34%
O=C(NC1CC(=O)N(c2cccc(F)c2)C1)C(c1ccccc1)c1ccccc1 (stereo unspecified) -19.8%
CCC(Oc1ccccc1)C(=O)Nc1ccc(OCc2cc(=O)n3ccccc3n2)cc1 (stereo unspecified) 14.9%
CCC1C(=O)OCC1Cc1cncn1C (stereo unspecified) -5.62%
Cc1cn([C@@H]2C[C@@H](O)[C@H](CO)O2)c(=O)[nH]c1=O -16.1%
COC(=O)c1ccccc1NC(=O)c1ccc2c(=O)n3c(nc2c1)CCCCC3 -4.42%
CCOc1ccc(CNC(=O)C2Cc3ccccc3N2C(=O)CC)cc1 (stereo unspecified) -4.92%
CC(C)(C)c1ccc(C(=O)N2CCC(c3nc(-c4ccc(S(=O)(=O)N5CCCC5)cc4)no3)CC2)cc1 -23.9%
CCN(CC)CCNC(=O)c1ccc(CSc2nc3ccncc3n2Cc2cccc(F)c2)cc1 -5.26%
CCOc1ccc(-c2cc3c(=O)n(Cc4nc(-c5ccc(OC(C)C)cc5)oc4C)ccn3n2)cc1Cl -23.7%
O=C(Cn1nc(N2CCN(c3ccccc3)CC2)ccc1=O)Nc1ccc(F)cc1F -11.4%
COc1ccc(CNC(=O)C2CCCN(C(=O)N3CCOc4ccccc43)C2)cc1 (stereo unspecified) -30.1%
COc1cc(C2SC[C@H]3C(=O)N(c4ccccc4)C(=O)N23)cc(OC)c1OC (stereo partly specified) -32.6%
CCCN(CCC)S(=O)(=O)c1ccc2c(c1)N(CC(=O)NCc1ccc(F)cc1Cl)C(=O)CS2 -36.8%
Cc1ccccc1-c1nc(CN2CCC(C(=O)NCCc3ccccc3)CC2)c(C)o1 -24.7%
O=C(CCCn1c(=O)c2ccccc2n(CC(=O)Nc2cccc(C(F)(F)F)c2)c1=O)NCc1ccc2c(c1)OCO2 -11.9%
Cc1cc2ccccc2n1CCNC(=O)c1cc(C(F)(F)F)cc(C(F)(F)F)c1 -27.5%
COCCn1c(SCC(=O)c2ccc(C)cc2C)nc2cc(C(=O)NC3CCCC3)ccc2c1=O 6.02%
Cn1nnc2c(N3CCN(c4ccccc4)CC3)ncnc21 30.4%
CCOc1ccc(N(CC)S(=O)(=O)N2CCCC(C(=O)Nc3cc(Cl)ccc3C)C2)cc1 (stereo unspecified) -33.3%
CC(=O)Nc1ccc(S(=O)(=O)Nc2ccc([N+](=O)[O-])cc2)cc1 -5.06%
CC(C)COc1ccc(C2=NC(c3ccncc3)=Nc3ccc(F)cc3N2)cc1 4.12%
CC(C)c1ccc(NC(=O)c2cc(S(=O)(=O)N3CCCCC3)cn2C)cc1 -11.2%
COc1ccccc1CNc1nc2ccc(Cl)cc2n2cnnc12 -3.4%
CN1CCN(C(=O)Cn2c(-c3cccs3)cc3cc(Cl)ccc32)CC1 -27.3%
Cc1ccc(C(=O)Nc2ccc(S(=O)(=O)O)c3cc(S(=O)(=O)O)cc(S(=O)(=O)O)c23)cc1NC(=O)c1cccc(NC(=O)Nc2cccc(C(=O)Nc3cc(C(=O)Nc4ccc(S(=O)(=O)O)c5cc(S(=O)(=O)O)cc(S(=O)(=O)O)c45)ccc3C)c2)c1
Cc1ccccc1OC(=O)CSc1nnc(-c2ccc3c(c2)OCO3)o1 -36.4%
Cc1ccc(Cl)cc1N1CCN(C(=O)C2CCN(S(=O)(=O)c3cccc4nonc34)CC2)CC1 -42%
COC(=O)c1cc(NC(=O)c2nn(C)c3c2CSc2ccccc2-3)cc(C(=O)OC)c1 1.43%
CN(Cc1ccc(F)cc1)S(=O)(=O)c1nnc(NC(=O)c2ccccc2Br)s1 -38.9%
O=C(Cn1c(=O)n(Cc2ccc(Cl)cc2)c(=O)c2cccnc21)Nc1ccccc1C(F)(F)F -9.63%
Cc1ccc(NC(=O)CNC(=O)Cn2c(C)cc3ccccc3c2=O)cc1F -4.48%
Cc1ccc(-n2nc3c(=O)n(CCCC(=O)NCc4ccccc4C)nc(C)c3c2C)cc1 -14.7%
COCCNC(=O)c1c(-c2ccccc2)c(-c2ccccc2)nn(C)c1=O -7.09%
Cc1ccc([N+](=O)[O-])cc1S(=O)(=O)N1CCn2cccc2C1c1ccccc1F (stereo unspecified) -10.9%
CCOC(=O)c1c(C)c(-c2ccccc2)n(CC(=O)NCc2cccc(OC)c2)c1C -6.82%
O=C(NCc1cccn1Cc1ccccc1)Nc1cccc(C(F)(F)F)c1 -30.5%
Cn1c(=O)oc2cc(S(=O)(=O)N3CCC(C(=O)NCc4ccccc4)CC3)ccc21 -16.7%
CC(=O)c1ccc(NC(=O)Cn2cnc3nc4c(cc3c2=O)CC(C)CC4)cc1 (stereo unspecified) 22%
CCOc1cccc(C2c3[nH]c4ccccc4c3CCN2C(=O)c2ccccc2F)c1 (stereo unspecified) -29.9%
CCOc1ccccc1C(=O)Nc1ccc(S(=O)(=O)Nc2onc(C)c2C)cc1 -18.9%
CCOC(=O)c1c(SCC(=O)Nc2nc3ccccc3s2)nc(=O)[nH]c1C -19.1%
CCC(Sc1nnc(C)n2c1cc1sccc12)C(=O)Nc1ccccc1F (stereo unspecified) -39.7%
CCc1cc(C(N)=S)ccn1
Cc1cccc(-c2nc3scc(CCNS(=O)(=O)c4c(C)noc4C)n3n2)c1 -22%
CCOC(=O)c1cnc2cc(C(F)(F)F)ccc2c1N1CCN(c2cccc(Cl)c2)CC1 -23.5% [at 11.5 µM, percent change from vehicle, -100% = no light]
CCOc1cc(CNC(=O)c2ccc(Cn3c(=O)c4cccn4c4cccnc43)cc2)ccc1OC -17.8%
Cc1ccc(NC(=O)CSc2nc3ccc(NC(=O)c4cccs4)cc3s2)cc1 -11.7%
O=C(NCc1cccn1Cc1ccccc1)Nc1ccc(Br)cc1F -21.3%
CC(=O)Nc1c(I)c(NC(C)=O)c(I)c(C(=O)O)c1I -8.53%
COc1cccc(N2CCN(c3ncnc4c3c(-c3ccccc3)cn4-c3ccc(C)cc3)CC2)c1 -9.92%
CCCc1cc(=O)[nH]c2nnc(SCC(=O)Nc3ccc(OC)cc3)n12 0.138%
O=C(COCc1cc(-c2ccc(F)cc2)on1)Nc1cccc(Cl)c1Cl 4%
O=C(Nc1ccccc1C(=O)OCc1cc(=O)n2ccsc2n1)c1ccc(Cl)cc1 27%
Cc1ccc(S(=O)(=O)c2nnn3c2nc(NC(C)c2ccccc2)c2sccc23)cc1 (stereo unspecified) 9.27%
CCOc1ccc(N2CC(NC(=O)c3ccc(S(=O)(=O)N4CCCC4)cc3)CC2=O)cc1 (stereo unspecified) -24.7%
Cc1ccc(S(=O)(=O)NC(=O)NC2CCCCC2)cc1 -4.86%
COc1ccccc1CNC(=O)CCNS(=O)(=O)c1ccc2c(c1)CCCC(=O)N2 -6.86%
CCN(CC)S(=O)(=O)c1ccc2c(c1)nc(CN(C)C(=O)Nc1ccc(Cl)cc1)n2C 8.09%
CCOC(=O)c1c(C)[nH]c(C)c1S(=O)(=O)NCC(=O)NCc1ccc(C)cc1 6.16%
Cc1ccc(Cl)cc1NC(=O)Nc1nnc(N2CCCC(C)C2)s1 (stereo unspecified) 2.39%
Cn1c(=O)c2c(-c3cccc(Br)c3)n(C(C)(C)CO)cc2n(C)c1=O -8.48%
CCC(C(=O)NCc1ccco1)n1nc(C)c2c(C)n(-c3ccc(C)cc3)nc2c1=O (stereo unspecified) -32.5%
Cc1cccc(C(=O)NCC(=O)OCc2cc(=O)n3nc(CC(C)C)sc3n2)c1 9.63%
COc1cccc(C(=O)N2CCN(CCc3ccncc3)CC2)c1 -17%
CN(C)c1ccc(CNC(=O)c2cccc(NC(=O)N3CCSc4ncccc43)c2)cc1 -15%
O=C1N(Cc2ccccc2)c2ccc(Cl)cc2C1(O)c1c[nH]c2ccccc12 (stereo unspecified) -18%
Cc1cc2nc(-c3ccc(OCc4ccccc4Cl)cc3)cc(C(F)(F)F)n2n1 -4.59%
COc1ccccc1NC(=O)Cn1c(SCC(=O)N(C)c2ccccc2)nc2ccccc21 -33.5%
Cc1ccc(NS(=O)(=O)c2ccc3c(c2)n(C)c(=O)n3C)cc1C -20.8%
Cc1ccc(S(=O)(=O)NC2(C(F)(F)F)NC(=O)N(CCc3ccccc3)C2=O)cc1 (stereo unspecified) -12.2%
COc1cccc2c1cc1c(=O)n(CC(=O)N3CCN(c4ccc(Cl)cc4)CC3)nc(C)n12 0.152%
Fc1ccc(Nc2ncnc3onc(-c4cccc(Cl)c4)c23)c(F)c1 -9.33%
